# Results: publication PMC4336329 (PLoS ONE, 2015)
# About 14,000 (4.5%) of roughly 310,000 compounds showed an effect of 50% or more. The effect is printed as a negative number. Some of the results follow.
# Molecular target: human ether-à-go-go-related gene (hERG) potassium channel (human, UniProt Q12809)
# Test: primary screen, population patch clamp on CHO cells stably expressing hERG
# 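Also: peak tail current of the secondary pulse compared with the same well before compound.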
# human ether-à-go-go-related gene (hERG) potassium channel, sequence (Q12809 whole entry, looked up): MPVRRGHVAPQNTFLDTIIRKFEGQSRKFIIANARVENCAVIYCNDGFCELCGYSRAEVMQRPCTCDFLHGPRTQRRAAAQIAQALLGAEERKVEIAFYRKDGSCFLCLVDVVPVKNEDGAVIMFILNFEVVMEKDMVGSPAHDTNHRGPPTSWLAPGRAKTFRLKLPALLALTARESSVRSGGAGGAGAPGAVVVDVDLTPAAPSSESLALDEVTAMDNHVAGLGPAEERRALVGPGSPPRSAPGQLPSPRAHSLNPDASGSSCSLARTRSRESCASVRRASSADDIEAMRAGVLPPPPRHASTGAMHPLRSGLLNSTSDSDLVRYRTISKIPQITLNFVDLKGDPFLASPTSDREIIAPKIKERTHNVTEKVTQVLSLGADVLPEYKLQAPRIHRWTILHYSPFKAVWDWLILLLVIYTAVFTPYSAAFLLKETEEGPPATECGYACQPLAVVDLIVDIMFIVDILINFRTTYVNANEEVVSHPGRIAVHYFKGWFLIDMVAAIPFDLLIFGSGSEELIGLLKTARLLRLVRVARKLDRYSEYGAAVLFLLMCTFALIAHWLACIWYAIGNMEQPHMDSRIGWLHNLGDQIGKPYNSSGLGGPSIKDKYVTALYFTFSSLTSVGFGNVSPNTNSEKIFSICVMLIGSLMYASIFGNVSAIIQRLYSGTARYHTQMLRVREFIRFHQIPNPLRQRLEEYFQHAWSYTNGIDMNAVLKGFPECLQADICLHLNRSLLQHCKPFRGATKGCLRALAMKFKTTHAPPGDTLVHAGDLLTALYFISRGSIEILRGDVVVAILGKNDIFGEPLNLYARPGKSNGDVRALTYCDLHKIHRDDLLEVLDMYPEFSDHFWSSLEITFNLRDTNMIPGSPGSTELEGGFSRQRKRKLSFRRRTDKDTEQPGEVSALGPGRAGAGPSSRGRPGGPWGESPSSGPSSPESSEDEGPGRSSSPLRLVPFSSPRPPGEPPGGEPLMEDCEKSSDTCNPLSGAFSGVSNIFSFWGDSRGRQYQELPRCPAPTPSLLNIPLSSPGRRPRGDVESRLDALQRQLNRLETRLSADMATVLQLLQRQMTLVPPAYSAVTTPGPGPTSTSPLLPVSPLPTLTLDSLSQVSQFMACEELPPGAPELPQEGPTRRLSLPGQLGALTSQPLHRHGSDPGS
row,Structure (SMILES),"hERG current change (%, negative = inhibition) at 10uM [%]"
1,CCC(=O)Nc1ccc2c(c1)nc1n2CCN(C2CCCCC2)C1,-6.11
2,CCC(=O)NN1CCN(c2ccncc2S(=O)(=O)N2CCCCC2)CC1,5.14
3,O=C(CSc1nccn(-c2ccc(Br)cc2)c1=O)NCc1ccccc1,-3.38
4,CN(C(=O)c1cc(S(=O)(=O)N2CCCCC2)c[nH]1)C1CCCCC1,1.06
5,CN(C)CC(c1ccccc1)c1ccccc1.Cl,5.32
6,CC(C)(C)NC(=O)C(c1ccncc1)N(Cc1cccs1)C(=O)c1csnn1 (centres unmarked),-0.691
7,Cc1nn(Cc2ccc(C(=O)N3N=C(C(F)F)CC3(O)C(F)F)cc2)c(C)c1[N+](=O)[O-] (centres unmarked),-62.9
8,CCOC(=O)c1c(C)n(Cc2ccco2)c2c1cc(O)c1ccccc12,6.11
9,CCc1ccc(NC(=O)NCc2ccc3c(c2)OCO3)cc1,-11.4
10,CCOC(=O)C1=C(c2ccccc2)NC(=O)NC1c1ccc(OC)c(OC)c1 (centres unmarked),48
11,Cc1ccccc1-n1c(-c2ccc(Br)o2)n[nH]c1=S,13.5
12,Cc1ccccc1N1C(=O)CC(=O)N(c2ccccc2C)C1=O,28.1
13,O=C(O)COc1ccccc1/C=C1\SC(=Nc2ccc(F)cc2)N(c2ccc(F)cc2)C1=O,-2.08
14,O=C(Nc1ccccc1C(=O)O)c1cccc(NC(=O)c2ccccc2Br)c1,9.46
15,COc1cc(NS(=O)(=O)c2ccc(NC(=O)/C=C/C(=O)O)cc2)nc(OC)n1,6.18
16,COc1ccc(N2CCN(C(CNS(=O)(=O)c3ccccc3)c3ccccc3)CC2)cc1 (centres unmarked),-22.5
17,Cc1ccc(OCC(=O)N/N=C/c2cccn2C)cc1,-0.613
18,Cc1nn(-c2ccccc2)c(C)c1CN(C)C(=O)c1ccc(S(=O)(=O)NCc2ccco2)cc1,-21.2
19,O=C(CCC(=O)N1CCCC1)Nc1nnc(C(F)(F)F)s1,2.85
20,COC(=O)c1ccc(NC(=O)CSc2nnc(COc3ccc4c(c3)CCCC4)o2)cc1,4.81
21,CC1C(=O)N2CCCc3cc(NC(=O)c4ccccc4F)cc1c32 (centres unmarked),-5.53
22,COc1ccc2c(CC(=O)NCCN3C(=O)S/C(=C\c4cccnc4)C3=O)coc2c1,-9.62

row,Structure (SMILES),"hERG current change (%, negative = inhibition) at 10uM [%]"
1,Cc1c(C(=O)NN)nc2ccccn12,6.94
2,O=C1NC(=O)N(CCC2=CCCCC2)C(=O)/C1=C\c1cccs1,1.15
3,CC(C)OC(=O)CSc1nnc(-c2cnccn2)n1-c1ccccc1,8.56
4,COc1ccc(N=N/C(C(C)=O)=C(/C)O)cc1,-24.5
5,CC(C)[C@H](NC(=O)[C@@H]1Cc2ccccc2CN1)C(=O)Nc1ccc2c(c1)OCO2,-25.8
6,CN(CC(=O)Nc1ccc(N2CCOCC2)cc1)C(=O)C1CCCC1,23.1
7,CCCOc1cccc(-c2cc(C(=O)NNC(=S)NCC)c3ccccc3n2)c1,7.6
8,Cc1cc(C)n2nc(C(=O)N/N=C/c3cccs3)nc2n1,14.1
9,CCC1CCCCN1C(=O)Cn1c(C(=O)OC)cc2sc(Cl)cc21 (centres unmarked),12
10,Cc1ccc(OCCOCCN2CCN(C)CC2)c([N+](=O)[O-])c1,5.81
11,Cc1cc(NC(=O)CSc2nc3c([nH]c4ccccc43)c(=O)n2-c2ccccc2F)no1,10.9
12,Cl.O=C1CN=C(Nc2ccccc2)N1Cc1cccs1,9.94
13,Cc1onc(-c2ccccc2)c1-c1csc(N/N=C/c2ccccc2Cl)n1,24.9
14,CC1Cc2nc(SCC(=O)Nc3nccs3)n(C)c(=O)c2S1 (centres unmarked),1.9
15,O=C(Nc1cc(Cl)ccc1Cl)C1CCCO1 (centres unmarked),6.21
16,COC(=O)c1ccc(N2NC(=O)/C(=C/c3cc(OC)c(O)c(OC)c3)C2=O)cc1,16.7
17,O=C(CN1C(=O)NC2(CCCc3ccccc32)C1=O)NCC(F)(F)F (centres unmarked),20.4
18,Cc1ccccc1CN(C)CC(=O)Nc1ccccc1-c1ccccc1,-7.41
19,Cc1ccc(CNc2ncnc3c2cnn3-c2ccccc2)cc1,6.42
20,CCCn1ncc(CN2CCC(CO)(Cc3ccc(OC)cc3)CC2)c1C,-41.9
21,Cc1cc(C)c(S(=O)(=O)N2CCN(C(=O)c3cc4ccccc4oc3=O)CC2)c(C)c1,-6.53
22,N#Cc1ccc(C(=O)Nc2cccc(NC(=O)c3ccco3)c2)c(F)c1,-17.3
